According to the supplement of paper PMC10338343:
± gives the standard deviation. Whole data set: some 5,500 sequences, median “pre-steady-state target cleavage rate” near 0.1, cut for the highest 2% near 0.64. The list shows a part of the results, in another mix than the full data.

Tested on: MIWI (PIWIL1) piRISC loaded with piRNA #2 (30 nt)
Experiment: pre-steady-state target cleavage rate (min^-1); MIWI and MILI are mouse PIWI proteins and EfPiwi is from a freshwater sponge; tags in brackets are library labels; higher = faster piRNA-guided slicing of the target
Conditions: guide: piRNA #2 5'p-UUAGGUAACCCAGUAGAUCCAGAGGAAUUC; auxiliary factor: 500 nM mouse GTSF1
Procedure, shortened: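 Cleave-'n-Seq: 1 nM active affinity-purified piRISC with one synthetic guide and 0.1 nM transcribed, DNA-blocked target RNA library were mixed, with or without 500 nM GTSF1 partner protein, in HEPES–potassium acetate buffer at 33 °C for 0–8 or 0–960 min. Uncleaved targets were sequenced and normalised to depth and to weakly complementary targets, three trials were pooled, and k3 was capped at 0.0001 min^-1. The pre-steady-state cleavage rate was fitted […].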

| Sequence | pre-steady-state target cleavage rate |
| --- | --- |
| CAAUUCCUCUGGAACAACUGGGUUACCUAA | 0.596 ± 0.054 |
| CAAUUCCUCAGGAUCUACUGCGUUACCUAA | 0.674 ± 0.071 |
| CUUAAGGUCUGGAUGUACUGCGUUACCUAA | 0.108 ± 0.037 |
| CUUUUCCUCUGGAUCUACUGGGUUACGAUA | 0.224 ± 0.042 |
| CUUAACCUCUGGAUCUACUGCGUUAGCUAA | 0.0732 ± 0.027 |
| GAAUUCGUCUGGAUCUACUGGGAUACCUAA | 0.324 ± 0.048 |
| CUUAUCCUCUGGAUCUACUGGGUUACCUAAA | 0.346 ± 0.053 |
| CUUAACCUCUGAUCUACUGGGUUACCUAA | 0.192 ± 0.02 |
| CAAUUCCUCUGGAUCUACUCGGAUACCUAA | 0.00864 ± 0.007 |
| CUUAAGGUCUGGAUCAACUGGGUUAGCUAA | 0.0423 ± 0.014 |
| CUUAACGUCUGGAUCUACUGGGUUACCUAA | 0.277 ± 0.03 |
| CUUAAGGACUGGAUCUAAUGGGUUACCUAA | 0.0855 ± 0.029 |
| CUUAUCCUCUGGAUCUACUGGGUUGACCUAA | 0.379 ± 0.034 |
| CAAUUCCUCUGGAUCUACUGCCUUACCUAA | 0.0897 ± 0.018 |
| CUUAUCCCUGGAUCUACUGGGUUACCUAA | 0.406 ± 0.031 |
| CUUAUCCUCUGCUACUACUGGGUUACCUAA | 0.27 ± 0.024 |
| CUUAUCAUCUGGAUCUACUGGGUUACCUAA | 0.364 ± 0.03 |
| CUUAUCCUCUGGAUCUACUGGGUUACCUAG [g2:g26:cont:t1G] | 0.386 ± 0.072 |
| CAAUUCCUCUGGAUCUACUGGCUUACCUUA | 0.0592 ± 0.021 |
| GAAUUCCUCUGGAUCUACUGGGUCUACCUAA | 0.421 ± 0.045 |
| CUUAUCGUCUGGAUCUACUGGGUUACCAAA | 0.185 ± 0.048 |
| CAAUUCCUCUGGAUGUACAGGGUUACCUAA | 0.431 ± 0.031 |
| GAAUUCCUCUGGAUCUACUGGGUUCCUAA | 0.00587 ± 0.0046 |
| CUAUUCCACUGGAUCUACUGGGUUACCAAA | 0.311 ± 0.056 |

| Sequence | pre-steady-state target cleavage rate |
| --- | --- |
| CUUAUCCUCUGGAUCUACUGGGUUAGCUAA | 0.337 ± 0.046 |
| CUUAAGGAGUGGAUCUACUGGGUUAUCUAA | 0.0152 ± 0.0056 |
| CUUUUCCUCUGGAUCUACAGGGUUACCAAA | 0.235 ± 0.025 |
| CUUAUCCUCUGGAUCUAGAGGGUUACCUAA | 0.0291 ± 0.0072 |
| GAAUUCCUCUGGAUGUACUGGCUUACCUAA | 0.0879 ± 0.023 |
| CAAUUCCUCUGGAUCUAGUGGGUAACCUAA | 0.0654 ± 0.016 |
| CUUAAGGUCUGGAUCUACUGGGUACCUAA | < 0.0001 |
| CUUUUCCACUGGAUCUACUGGGUUAGCUAA | 0.155 ± 0.033 |
| CAAUUCGCUCUGGAUCUACUGGGUUACCUAA | 0.202 ± 0.035 |
| CUUUUCGUCUGGAUCUACUGGCUUACCUAA | 0.0735 ± 0.025 |
| CUUAUCCUCUGGAUCUACUGGGUUACCUCA | 0.292 ± 0.056 |
| CUUAACCUCGGGAUCUACUGGGUUACCUAA | 0.18 ± 0.051 |
| GAAUUCCUCUGGAUCUACUCGGUUACCUUA | 0.121 ± 0.034 |
| CAAUUCGUCUGGAUCUACUGGCUUACCUAA | 0.0887 ± 0.03 |
| CUAUUCCUCUGGAUCUACUGCCUUACCUAA | 0.0682 ± 0.014 |
| CUUAAGGUUGGAUCUACUGGGUUACCUAA | 0.111 ± 0.024 |
| CUUAACCUCUGGAUCUACUGGGAUACGUAA | 0.169 ± 0.025 |
| CUUAACCUCUGGAUCUACUGGGUUAACUAA | 0.326 ± 0.047 |
| GUAUUCCUCUGGAUCUACUCGGUUACCUAA | 0.0206 ± 0.01 |
| CUUAAGGUCUGGUUCUACUGGGUAACCUAA | 0.0364 ± 0.022 |
| CUUAUCCUCUGGAUCAAGUGGGUUACCUAA | 0.00866 ± 0.0026 |
| CAAUUCUUCUGGAUCUACUGGGUUACCUAA | 0.514 ± 0.047 |
| GAAUCCCUCUGGAUCUACUGGGUUACCUAA | 0.26 ± 0.043 |
| CUUAAGGUCUGGAUCUACUGGGUAAGCUAA | 0.00737 ± 0.0024 |

| Sequence | pre-steady-state target cleavage rate |
| --- | --- |
| CAAUUCCUCUGGAACUACUGGGUUACCUAA | 0.502 ± 0.042 |
| CUUAAGGUCAGGAUCUUCUGGGUUACCUAA | 0.00769 ± 0.0062 |
| CUUUUCCUCUGGAUCUAGUGCGUUACCUAA | 0.0621 ± 0.0074 |
| CUAUUCGAGUGGAUCUACUGGGUUACCUAA | 0.336 ± 0.035 |
| CUAUUCCUCAGGAUCUACUGGGUUACCAAA | 0.409 ± 0.077 |
| CUUAAGGAGAGAGAUCUACUGGGUUACCUAA | 0.00483 ± 0.0032 |
| CUUAUCCUCUGGAUCUACUGGGUUACCUAC [g2:g26:cont:t1C] | 0.326 ± 0.045 |
| CUUAAGGACUGGAUUUACUGGGUUACCUAA | 0.109 ± 0.049 |
| CAAUUCCUCUGGAUCUACUGGUUACCUAA | 0.19 ± 0.046 |
| CUUAUCGUCUGGAUCUACUGGGUUUCCUAA | 0.309 ± 0.054 |
| CUUAUCCUCUGGAUUCUACUGGGUUACCUAA | 0.247 ± 0.039 |
| CUUAAGGUCUGGAUUACUGGGUUACCUAA | 0.0531 ± 0.023 |
| CUUAAGCUCUGGUUCUAGUGGGUUACCUAA | 0.117 ± 0.013 |
| CUUAAGCUGUGGAUGUACUGGGUUACCUAA | 0.135 ± 0.05 |
| CUUAAGCUCUGGACCUACUGGGUUACCUAA | 0.0252 ± 0.012 |
| CUUAAGGAGACCUAGAUGUGCGUUACCUAA | 0.00369 ± 0.0017 |
| CUUAACCUCUGCAUCUACUGGGUAACCUAA | 0.116 ± 0.014 |
| GAAUUCGCUCUGGAUCUACUGGGUUACCUAA | 0.134 ± 0.031 |
| CUUAUCCUCUGGAUCUACUGGGAAACCUAA | 0.169 ± 0.033 |
| GAAUACCUCUGCAUCUACUGGGUUACCUAA | 0.345 ± 0.051 |
| CUUAUCCUCUGGAGUCUACUGGGUUACCUAA | 0.296 ± 0.034 |
| CUUAACCUCUGGAACUACUGGGUUUCCUAA | 0.0963 ± 0.029 |
| CUUAACCUCUGGAUCUACUGGGUAACCAAA | 0.0535 ± 0.013 |
| CUUAAGCUCUGCAUCUACUGGGUAACCUAA | 0.0717 ± 0.019 |
